# The full ranking holds about 4,500 sequences; the median of “median log2 fold change of GCK-ALFA target abundance (FLAG IP / Myc IP barcode read proportion)” is about 0.078, and the lowest 2% start at about -0.6. The list shows a part of the results.
# B1: GBRAP_11_2725 (protein)
# chain: KKETILKHAKKAEELAKEIEKLIKEGPTEEELKKLAKEAEKLAKEAKKDGLPQSVVDTLEIAAELLKKAIEDPENAEEYLRQAAAAFRVAAGQLLLLAEE
# B2: GBRAP_128_3168 (protein)
# chain: SSEEIVKKVEELVEEMLKADDEEFRKLAEEIVDIIGEADLETAEKIVEIIIKNLPKLSEEKLDILMDVIREKRPEFSPEKQELLAEVEVEAGERILELEE
# B3: GBRAP_160_3995 (protein)
# chain: SEKKKKLLEKIKEILEETYELMKGESPEERLAIARVAAGDILLELFESELVSDETEEKIDEVLDEFVATVEANPDMSDEELKELLEETLEKIEKIIEENS
# B4: GBRAP_78_6630 (protein)
# chain: EVEELIDKAIEKLGEAAKLTVVLPEEDRNELLGLIVDAESDLLEAEEEGGDLEKLEEAKKHLEEALALVEALNDERAKPIKEELEKALKLLEEAIKLLKK
# B5: GBRAP_139_3721 (protein)
# chain: SHEEEIIEEAKKIVKENKDNIELLAKKIAELISKVDDETALKIARAVAEEIKDWSWEKFEEFIEKVSEELKKLGLSEDDILAIEGELEAVFAKIELEKEK
# B6: GBRAP_11_2912 (protein)
# chain: KKELLEELAKKAEELVEKLKELLEEGVENEELLEEALKIAEEALKLAKKNLDESTVKLAEELVELLKKALEDPENAEQYVKEALAVARVLLGQILLEIEE
# B7: GBRAP_48_5814 (protein)
# chain: KKLDLEKLEKLVEEKVEEMYELYEEAKKEGLSEEEILRMIRAELGDLALELEEAGYEKAADYLLDPENREELAKKLLELFKEGKKEEAKKLLLEKLLEAE
# B8: GBRAP_11_2624 (protein)
# chain: KKEKLKEIAKLAEEAAELAKKLLEKGVDDEELLKELKEKIEELKKLVKKYADESDQKDVEIAEELFKKSLEDKENAEKYLKELLAALRVLAGNYLLEIEE
# B9: GBRAP_128_3397 (protein)
# chain: GQEEKVKEAKKLIDEIVNSSVEEAKELAKKFMELFGELDEEAREEVAEYFESKLPKLTAEKLDVVADVIREMRPKLDEEAANIAADMEVAALNQAEEKEE
# B10: GBRAP_128_3158 (protein)
# chain: SVEEVKEKTRELLEKIKESDDETARELAEELFALIGTLSKEEREAAVEVILERLPELSEEKLEILADVAREMRPKYDEYTANLIAEVEVEALNEAEELEE
# B11: GBRAP_55_6432 (protein)
# chain: SEDDEDRRLAAETLLELAVAFADDPEKLAAYVDRLMEVAKDAPVTATASPLPREEAERIYEKLKAELEKAAKEHGLEVKVELVEDPETGTASIVVTITPK
# B12: GBRAP_11_2933 (protein)
# chain: SKELIKKAAEAAKKAKKIVEEAIKKGYLTEEEKKEVKELLEKAKELLKKLNTEEAKALQKDVEVALEILEEVEKDPEFYLKLLKATLESIELELEELLEE
# B13: GBRAP_35_5524 (protein)
# chain: NSDETAAEMLVATIDDLTLAVPDLPLDTLVAITNQLARSAEELVEDLKDKPESLKKLLESMKKLLEAIKRHHADSPEAKAAAARVEKVIKKIEEAIKKAE
# B14: GBRAP_128_3197 (protein)
# chain: VSAAAVAALRALAAAVIATKSDAAIAAFAAAVAAALAAGEIDIDTLEEIVAALGEGLDADTLAKVADALDAALADVGAEARATALGTLGEKIWEKEEEAE
# B15: GBRAP_160_4236 (protein)
# chain: SEKLKKLEEEINEEFELLLEVLLESPKSQWEAYARAFAGDIVQIVIENEEVSDEAEEKVAEIADEMVEDLVAAKDASPEELKKLLEEYAKKIVETVKKEL
# B16: GBRAP_52_6271 (protein)
# chain: MEEEAEKLAKEALEVVLNKSKEEIEKFAKELVENNSQELIALTLEIVVKLSEELDLESIEKVLDFFLILEDEAEEAGKDTLPAEDAAARLAGLALEKRAE
# B17: GBRAP_128_3371 (protein)
# chain: IDEEKLARVRELAEAMAKADVETARELARELVELLATLSPEERKAAVEIIKKELPKLTAEKLDVLADVIRELRPTVDPETAALLNELEVEALNEALEKEE
# B18: GBRAP_48_5836 (protein)
# chain: EEERLEKAIEESLKVIKETAELLKEAKEEGLSEAAFEAILIDAAEELKEIWDKYLGLGEAWDALPLEERLAIVRELVETYEKEGEEAARKKIREVIEELK
# B19: GBRAP_11_2778 (protein)
# chain: KKEKLEKAIELAKKLAEAIKKLLEEGVDNEELRKEAEKLLEELEKLIKENADKDLQKLAEIAKEEWKEALENPETAVEHLKNMLAAVETLEGQLLLELEE
# B20: GBRAP_52_6021 (protein)
# chain: MEARLQAAVRELLALVRAGDEDAARAAARALVASLNEEELKLLVDEVAALAAEAAPEDADAVWRLAEIIAEALEEAGVDEALADDLLARTAAALHEALQR
# B21: GBRAP_80_6773 (protein)
# chain: ALKEAEKAIEEVEKLDPELAKELRKILEKLLKKGASEETLKAFAELAAAIAEALKLGLKETAEEAVKEAKEAAELEDEEEITAEFRGIAGEVLMEVEEAE
# B22: GBRAP_128_3288 (protein)
# chain: APEELLEEVRELIERIKNSDAAEARAIAEELARLMGEVSVEEAEAIAEIIRELLPELSAEQLEILADVLDAAMPEMDPEKAAIAADVASDALLEAEELEE
# B23: GBRAP_43_5776 (protein)
# chain: SKEIVEGALDTAKLMAENPEIPDDQKVKAIKAAFDLAADEGYVDEKEVKEVIDAANASLSAEALEELAKHLEELAKKYPEFAKVFKAARKEVEAAIEKKR
# B24: GBRAP_137_3683 (protein)
# chain: KTLKATIKRIDGRTYVLIESDDESLAEELLDAVLDALDELGLKATVASLVENGKVYIEIDFPEDVTKEQVLALLKLVAERLGVDLVVKDEDTGETLEYKA
# B25: GBRAP_78_6720 (protein)
# chain: ELEEELEKAIEVLNKAAKAALSLPLEESNELLDLLVEATNLLMEILEENLPKEEAIKKLKEAIELLEKALKLLGGKYPELKKLVEKAKELAEKALELAKK
# B26: GBRAP_45_5806 (protein)
# chain: SAAKQAALDAALAALDAAIAEAQKLAAKDPERWGKYLARLEELRARLKAHADDAAALEEIERELEALLKEALADPNATAELLDALLDAANAVAEAAELLK
# B27: GBRAP_125_3095 (protein)
# chain: EMEEILEALKLLAKALGFSEEEAEELAELAAKSSIKQTLYALFKAEGYEELAELVEKLTEEEAKELLLELAKWLKENPNATKEEVVKKAKEIAEKLLKKS
# B28: GBRAP_184_5232 (protein)
# chain: KVLEREIEAENAEELAAQLAAVAAEAAAAGARVRLILRVKELTREKAEVIAARLREMAAAGLVDLVEVESTTRIEEENIDLLVEAAREAGVRLVLALEEE
# B29: GBRAP_166_4951 (protein)
# chain: AQEAIRAALAARIEELAAQMRTADAEERLALYAEIAEALAEAREAGLSSADLLALATRALRLVKEAGGSVRQLLGVLFMFVDLTEEERDELAAAADAVEA
# Biological target: GABARAP, O95166
# Sequence (O95166 whole entry, the tested form may be a part): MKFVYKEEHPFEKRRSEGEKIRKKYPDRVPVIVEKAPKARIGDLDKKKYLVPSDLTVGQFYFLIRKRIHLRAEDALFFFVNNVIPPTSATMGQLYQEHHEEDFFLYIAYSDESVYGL
# Experiment: median log2 fold change of GCK-ALFA target abundance (FLAG IP / Myc IP barcode read proportion) (log2 ratio); each designed protein is fused to an ALFA-tag nanobody in HEK293 cells to bring the named protein to FLAG-tagged glucokinase (GCK); Myc marks an untargeted standard; higher = target protein stabilised (more abundant)
# Details: target protein: 3xFLAG-MCP-GCK-ALFA reporter; HEK293 landing pad (RPLP)
# Procedure: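 LABEL-seq trans screen in HEK293 landing-pad cells. Each de novo designed 100-aa effector handle, binding the indicated effector (E3 ligase, DUB or autophagy protein), is fused to a constant NbALFA target handle and induced with 2 ug/mL doxycycline. A FLAG-MCP-GCK-ALFA target and a Myc-MCP standard reporter were transfected, and after 48 h circRNA barcodes were recovered by anti-FLAG and anti-Myc IP and sequenced. The value is the median across barcodes (at least 3 per design) of log2(FLAG/Myc read-proportion ratio), with the two transfection replicates pooled. Negative values mean degradation and positive values mean stabilisation of the target.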
row,Binder,median log2 fold change
1,B1,0.289
2,B2,0.0404
3,B3,-0.00842
4,B4,0.179
5,B5,-0.231
6,B6,0.422
7,B7,0.0525
8,B8,0.269
9,B9,0.202
10,B10,-0.107
11,B11,0.231
12,B12,0.235
13,B13,0.0758
14,B14,0.0303
15,B15,-0.0584
16,B16,0.132
17,B17,0.0844
18,B18,0.414
19,B19,0.252
20,B20,0.045
21,B21,0.227
22,B22,0.138
23,B23,0.272
24,B24,-0.135
25,B25,0.174
26,B26,0.259
27,B27,0.259
28,B28,-0.176
29,B29,0.055

# Reference: the supplement of paper PMC12632987
